No constants are given. Whether binding was seen depends on the method and setting. In cells and extracts the contact can be indirect. Some results given as binding are weak or reduced against the parent protein; the word gives no strength. For part of these data: Tags and fused reporters may be left off the sequences shown.
Experiments:
[1] = molecular target: T1, Flag-Stat6 (wild type) (mouse) (UniProt P52633); assay: co-IP; 293T cells transfected with the expression vectors, with or without Trim24 co-expressed; lysed in RIPA buffer; IP with anti-Flag, protein-A/G magnetic beads, immunoblot with anti-HA and anti-Flag
T1 sequence: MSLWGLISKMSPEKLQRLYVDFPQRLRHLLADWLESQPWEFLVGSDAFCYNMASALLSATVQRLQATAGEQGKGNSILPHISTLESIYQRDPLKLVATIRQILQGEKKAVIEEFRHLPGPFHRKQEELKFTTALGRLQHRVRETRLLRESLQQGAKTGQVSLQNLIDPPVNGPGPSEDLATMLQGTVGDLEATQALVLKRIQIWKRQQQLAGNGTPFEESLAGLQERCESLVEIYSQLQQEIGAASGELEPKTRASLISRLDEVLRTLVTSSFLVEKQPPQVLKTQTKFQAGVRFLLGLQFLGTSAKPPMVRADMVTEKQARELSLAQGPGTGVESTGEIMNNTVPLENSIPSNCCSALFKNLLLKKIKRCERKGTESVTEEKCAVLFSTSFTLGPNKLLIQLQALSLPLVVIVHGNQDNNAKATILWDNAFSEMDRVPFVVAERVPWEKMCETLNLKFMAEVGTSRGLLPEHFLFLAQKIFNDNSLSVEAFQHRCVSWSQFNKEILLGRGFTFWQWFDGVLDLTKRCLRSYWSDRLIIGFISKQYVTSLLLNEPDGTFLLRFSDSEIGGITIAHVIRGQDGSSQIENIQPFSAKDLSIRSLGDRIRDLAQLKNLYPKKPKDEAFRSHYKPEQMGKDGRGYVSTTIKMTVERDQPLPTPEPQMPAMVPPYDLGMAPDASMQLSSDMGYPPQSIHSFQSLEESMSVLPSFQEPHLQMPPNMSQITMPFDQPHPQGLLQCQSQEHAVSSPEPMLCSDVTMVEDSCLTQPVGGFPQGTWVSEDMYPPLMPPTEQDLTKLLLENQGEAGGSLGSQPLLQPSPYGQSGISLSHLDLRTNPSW

Sequences of proteins named here, by UniProt entry; tags and fusion partners are left off. A change or cut given only in a name is not applied to a line headed by its entry.
UniProt P45481: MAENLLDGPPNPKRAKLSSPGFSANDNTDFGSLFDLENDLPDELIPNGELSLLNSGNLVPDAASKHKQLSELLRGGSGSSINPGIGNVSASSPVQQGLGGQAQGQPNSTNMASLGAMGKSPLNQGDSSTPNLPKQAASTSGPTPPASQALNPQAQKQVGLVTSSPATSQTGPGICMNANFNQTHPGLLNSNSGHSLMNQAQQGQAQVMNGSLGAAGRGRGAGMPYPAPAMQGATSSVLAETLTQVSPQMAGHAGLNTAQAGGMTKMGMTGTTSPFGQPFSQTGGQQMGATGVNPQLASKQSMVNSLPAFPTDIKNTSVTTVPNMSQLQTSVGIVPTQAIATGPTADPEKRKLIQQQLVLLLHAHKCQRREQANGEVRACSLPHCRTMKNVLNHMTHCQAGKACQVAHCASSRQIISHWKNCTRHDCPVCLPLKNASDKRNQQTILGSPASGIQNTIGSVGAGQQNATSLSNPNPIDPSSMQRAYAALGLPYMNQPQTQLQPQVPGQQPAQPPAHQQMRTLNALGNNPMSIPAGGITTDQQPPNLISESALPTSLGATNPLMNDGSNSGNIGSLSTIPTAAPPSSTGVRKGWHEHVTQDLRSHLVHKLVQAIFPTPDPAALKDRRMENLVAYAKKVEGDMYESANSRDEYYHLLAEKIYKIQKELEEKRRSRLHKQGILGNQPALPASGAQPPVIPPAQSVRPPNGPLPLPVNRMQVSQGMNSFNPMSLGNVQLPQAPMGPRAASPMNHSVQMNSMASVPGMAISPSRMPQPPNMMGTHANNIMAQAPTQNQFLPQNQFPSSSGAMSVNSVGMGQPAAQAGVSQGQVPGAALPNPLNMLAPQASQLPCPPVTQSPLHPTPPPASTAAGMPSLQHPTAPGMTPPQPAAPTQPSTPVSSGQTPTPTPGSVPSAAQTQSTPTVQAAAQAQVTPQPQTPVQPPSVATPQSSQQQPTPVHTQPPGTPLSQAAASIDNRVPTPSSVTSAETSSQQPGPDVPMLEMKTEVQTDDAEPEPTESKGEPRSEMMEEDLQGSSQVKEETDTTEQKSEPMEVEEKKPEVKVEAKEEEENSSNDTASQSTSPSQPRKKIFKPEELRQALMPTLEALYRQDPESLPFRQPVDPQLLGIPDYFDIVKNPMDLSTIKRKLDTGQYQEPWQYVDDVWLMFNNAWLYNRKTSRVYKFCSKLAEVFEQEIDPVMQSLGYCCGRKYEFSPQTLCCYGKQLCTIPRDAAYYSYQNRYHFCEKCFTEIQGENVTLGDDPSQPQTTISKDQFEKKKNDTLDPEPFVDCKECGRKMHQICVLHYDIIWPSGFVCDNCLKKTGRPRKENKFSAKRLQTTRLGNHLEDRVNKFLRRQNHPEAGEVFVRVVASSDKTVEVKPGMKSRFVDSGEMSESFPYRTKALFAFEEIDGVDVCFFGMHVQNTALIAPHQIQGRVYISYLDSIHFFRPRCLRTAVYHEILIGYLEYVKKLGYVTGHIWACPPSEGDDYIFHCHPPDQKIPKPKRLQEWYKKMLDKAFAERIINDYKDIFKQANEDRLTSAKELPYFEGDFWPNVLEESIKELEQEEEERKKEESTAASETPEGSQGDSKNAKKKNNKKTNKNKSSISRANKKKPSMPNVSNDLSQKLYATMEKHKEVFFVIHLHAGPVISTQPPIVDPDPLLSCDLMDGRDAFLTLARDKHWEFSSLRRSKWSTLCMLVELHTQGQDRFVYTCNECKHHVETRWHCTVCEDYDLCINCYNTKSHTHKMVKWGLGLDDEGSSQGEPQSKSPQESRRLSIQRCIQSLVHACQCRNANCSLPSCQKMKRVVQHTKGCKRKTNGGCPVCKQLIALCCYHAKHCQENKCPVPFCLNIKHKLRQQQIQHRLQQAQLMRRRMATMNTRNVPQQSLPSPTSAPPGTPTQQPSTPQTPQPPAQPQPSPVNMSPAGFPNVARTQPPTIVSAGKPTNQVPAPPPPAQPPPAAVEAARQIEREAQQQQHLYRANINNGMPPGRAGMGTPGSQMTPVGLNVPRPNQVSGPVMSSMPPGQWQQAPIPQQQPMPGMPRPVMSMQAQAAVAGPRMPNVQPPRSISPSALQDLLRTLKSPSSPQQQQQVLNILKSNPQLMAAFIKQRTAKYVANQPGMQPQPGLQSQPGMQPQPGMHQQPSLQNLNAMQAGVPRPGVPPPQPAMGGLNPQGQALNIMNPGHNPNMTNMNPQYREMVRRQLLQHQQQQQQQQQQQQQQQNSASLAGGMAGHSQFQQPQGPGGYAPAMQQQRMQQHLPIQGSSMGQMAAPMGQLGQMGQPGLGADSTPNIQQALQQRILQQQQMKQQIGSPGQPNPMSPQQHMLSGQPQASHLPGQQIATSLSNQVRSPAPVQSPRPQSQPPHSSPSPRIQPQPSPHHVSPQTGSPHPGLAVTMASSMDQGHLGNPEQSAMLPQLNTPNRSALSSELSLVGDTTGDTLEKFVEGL

[2] = substrate: CBP, endogenous in immortalized mouse bone marrow-derived macrophages (mouse (endogenous in iBMDMs)) (UniProt P45481); assay: co-IP; endogenous proteins in control iBMDMs, unstimulated or stimulated with IL-4 for 30 min; lysed in RIPA buffer; IP with anti-CBP, immunoblot with anti-CBP, anti-Stat6 and anti-Trim24
[3] = substrate: CBP, endogenous in immortalized mouse bone marrow-derived macrophages (mouse (endogenous in iBMDMs)) (UniProt P45481); assay: co-IP; endogenous proteins in Trim24-knockdown iBMDMs, unstimulated or stimulated with IL-4 for 30 min; IP with anti-CBP, immunoblot with anti-CBP, anti-Stat6 and anti-Trim24
[4] = substrate: CBP (wild type) as tested with Trim24 in Supplementary Fig. 2f (UniProt P45481); assay: co-IP; Supplementary Fig. 2f; legend not shown; co-IP is taken as the method because it is the only interaction method in the paper's methods
[5] = substrate: CBP K119R mutant as tested with Trim24 in Supplementary Fig. 2f (UniProt P45481); assay: as above

HA-CBP (wild type) (from UniProt P45481 1-2441)
binding [1]: binds

B1: Stat6, endogenous in immortalized mouse bone marrow-derived macrophages (protein, UniProt P52633 1-837)
chain: MSLWGLISKMSPEKLQRLYVDFPQRLRHLLADWLESQPWEFLVGSDAFCYNMASALLSATVQRLQATAGEQGKGNSILPHISTLESIYQRDPLKLVATIRQILQGEKKAVIEEFRHLPGPFHRKQEELKFTTALGRLQHRVRETRLLRESLQQGAKTGQVSLQNLIDPPVNGPGPSEDLATMLQGTVGDLEATQALVLKRIQIWKRQQQLAGNGTPFEESLAGLQERCESLVEIYSQLQQEIGAASGELEPKTRASLISRLDEVLRTLVTSSFLVEKQPPQVLKTQTKFQAGVRFLLGLQFLGTSAKPPMVRADMVTEKQARELSLAQGPGTGVESTGEIMNNTVPLENSIPSNCCSALFKNLLLKKIKRCERKGTESVTEEKCAVLFSTSFTLGPNKLLIQLQALSLPLVVIVHGNQDNNAKATILWDNAFSEMDRVPFVVAERVPWEKMCETLNLKFMAEVGTSRGLLPEHFLFLAQKIFNDNSLSVEAFQHRCVSWSQFNKEILLGRGFTFWQWFDGVLDLTKRCLRSYWSDRLIIGFISKQYVTSLLLNEPDGTFLLRFSDSEIGGITIAHVIRGQDGSSQIENIQPFSAKDLSIRSLGDRIRDLAQLKNLYPKKPKDEAFRSHYKPEQMGKDGRGYVSTTIKMTVERDQPLPTPEPQMPAMVPPYDLGMAPDASMQLSSDMGYPPQSIHSFQSLEESMSVLPSFQEPHLQMPPNMSQITMPFDQPHPQGLLQCQSQEHAVSSPEPMLCSDVTMVEDSCLTQPVGGFPQGTWVSEDMYPPLMPPTEQDLTKLLLENQGEAGGSLGSQPLLQPSPYGQSGISLSHLDLRTNPSW
binding [2]: binds
binding [3]: no binding (condition: Trim24 knockdown)

B2: Trim24, endogenous in immortalized mouse bone marrow-derived macrophages (protein, UniProt Q64127 1-1051)
chain: MEVAVEKAAAAAAPAGGPAAAAPSGENEAESRQGPDSESGGEASRLNLLDTCAVCHQNIQSRVPKLLPCLHSFCQRCLPAPQRYLMLTAPALGSAETPPPAPAPAPAPGSPAGGPSPFATQVGVIRCPVCSQECAERHIIDNFFVKDTTEVPSSTVEKSNQVCTSCEDNAEANGFCVECVEWLCKTCIRAHQRVKFTKDHTVRQKEEVSPEAVGVTSQRPVFCPFHKKEQLKLYCETCDKLTCRDCQLLEHKEHRYQFIEEAFQNQKVIIDTLITKLMEKTKYIKYTGNQIQNRIIEINQNQKQVEQDIKVAIFTLMVEINKKGKALLHQLESLAKDHRMKLMQQQQEVAGLSKQLEHVMHFSKWAVSSGSSTALLYSKRLITYRLRHLLRARCDASPVTNTTIQFHCDPSFWAQNIINLGSLVIEDKESQPQMPKQNPVVEQSSQPPGGLPSNQLSKFPTQISLAQLRLQHIQQQVMAQRQQVQRRPAPVGLPNPRMQGPIQQPSISHQHPPPRLINFQNHSPKPNGPVLPPYPQQLRYSPSQNVPRQTTIKPNPLQMAFLAQQAIKQWQISSVQAPPTTASSSSSTPSSPTITSAAGYDGKAFSSPMIDLSAPVGGSYNLPSLPDIDCSSTIMLDNIARKDTGVDHAQPRPPSNRTVQSPNSSVPSPGLAGPVTMTSVHPPIRSPSASSVGSRGSSGSSSKPAGADSTHKVPVVMLEPIRIKQENSGPPENYDFPVVIVKQESDEESRPQNTNYPRSILTSLLLNSSQSSASEETVLRSDAPDSTGDQPGLHQENSSNGKSEWSDASQKSPVHVGETRKEDDPNEDWCAVCQNGGELLCCEKCPKVFHLTCHVPTLTNFPSGEWICTFCRDLSKPEVDYDCDVPSHHSEKRKSEGLTKLTPIDKRKCERLLLFLYCHEMSLAFQDPVPLTVPDYYKIIKNPMDLSTIKKRLQEDYCMYTKPEDFVADFRLIFQNCAEFNEPDSEVANAGIKLESYFEELLKNLYPEKRFPKVEFRHEAEDCKFSDDSDDDFVQPRKKRLKSTEDRQLLK
binding [2]: binds

B3: HA-Trim24 (full length) (protein, UniProt Q64127-1 1-1051)
chain: MEVAVEKAAAAAAPAGGPAAAAPSGENEAESRQGPDSESGGEASRLNLLDTCAVCHQNIQSRVPKLLPCLHSFCQRCLPAPQRYLMLTAPALGSAETPPPAPAPAPAPGSPAGGPSPFATQVGVIRCPVCSQECAERHIIDNFFVKDTTEVPSSTVEKSNQVCTSCEDNAEANGFCVECVEWLCKTCIRAHQRVKFTKDHTVRQKEEVSPEAVGVTSQRPVFCPFHKKEQLKLYCETCDKLTCRDCQLLEHKEHRYQFIEEAFQNQKVIIDTLITKLMEKTKYIKYTGNQIQNRIIEINQNQKQVEQDIKVAIFTLMVEINKKGKALLHQLESLAKDHRMKLMQQQQEVAGLSKQLEHVMHFSKWAVSSGSSTALLYSKRLITYRLRHLLRARCDASPVTNTTIQFHCDPSFWAQNIINLGSLVIEDKESQPQMPKQNPVVEQSSQPPGGLPSNQLSKFPTQISLAQLRLQHIQQQVMAQRQQVQRRPAPVGLPNPRMQGPIQQPSISHQHPPPRLINFQNHSPKPNGPVLPPYPQQLRYSPSQNVPRQTTIKPNPLQMAFLAQQAIKQWQISSVQAPPTTASSSSSTPSSPTITSAAGYDGKAFSSPMIDLSAPVGGSYNLPSLPDIDCSSTIMLDNIARKDTGVDHAQPRPPSNRTVQSPNSSVPSPGLAGPVTMTSVHPPIRSPSASSVGSRGSSGSSSKPAGADSTHKVPVVMLEPIRIKQENSGPPENYDFPVVIVKQESDEESRPQNTNYPRSILTSLLLNSSQSSASEETVLRSDAPDSTGDQPGLHQENSSNGKSEWSDASQKSPVHVGETRKEDDPNEDWCAVCQNGGELLCCEKCPKVFHLTCHVPTLTNFPSGEWICTFCRDLSKPEVDYDCDVPSHHSEKRKSEGLTKLTPIDKRKCERLLLFLYCHEMSLAFQDPVPLTVPDYYKIIKNPMDLSTIKKRLQEDYCMYTKPEDFVADFRLIFQNCAEFNEPDSEVANAGIKLESYFEELLKNLYPEKRFPKVEFRHEAEDCKFSDDSDDDFVQPRKKRLKSTEDRQLLK
binding [4]: binds
binding [5]: binds

Reference: article PMC6761150
